# This is one part of the list.
# B1: SpnanA (Streptococcus pneumoniae), P62575 (protein)
# chain: MVIEKEDVETNASNGQRVDLSSELDKLKKLENATVHMEFKPDAKAPAFYNLFSVSSATKKDEYFTMAVYNNTATLEGRGSDGKQFYNNYNDAPLKVKPGQWNSVTFTVEKPTAELPKGRVRLYVNGVLSRTSLRSGNFIKDMPDVTHVQIGATKRANNTVWGSNLQIRNLTVYNRALTPEEVQKRS
# Legend:
# Test in all cases: glycan array binding signal (z-score within array); higher = stronger binding
# Details in all cases: glycan notation: IUPAC condensed, linker removed
# Fuc(a1-2)Gal = target: Fuc(a1-2)Gal
# Summary of the method: (§1)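 Negative Z-scores can be read as non-binding. The Z-score is calculated within each array and then averaged across arrays of one protein sequence at different concentrations or buffers and across linkers. Arrays, 3228 in all, were curated from the Consortium for Functional Glycomics database and kept only where the protein sequence was available.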
# Fuc(a1-2)Gal(b1-3)GalNAc = target: Fuc(a1-2)Gal(b1-3)GalNAc
# Summary of the method: as §1
# [1] = target: Fuc(a1-2)Gal(b1-3)GalNAc(a1-3)[Fuc(a1-2)]Gal(b1-4)Glc
# Summary of the method: as §1
# [2] = target: Fuc(a1-2)Gal(b1-3)GalNAc(a1-3)[Fuc(a1-2)]Gal(b1-4)GlcNAc
# Summary of the method: as §1
# [3] = target: Fuc(a1-2)Gal(b1-3)GalNAc(b1-3)Gal
# Summary of the method: as §1
# [4] = target: Fuc(a1-2)Gal(b1-3)GalNAc(b1-3)Gal(a1-4)Gal(b1-4)Glc
# Summary of the method: as §1
# [5] = target: Fuc(a1-2)Gal(b1-3)GalNAc(b1-4)[Neu5Ac(a2-3)]Gal(b1-4)Glc
# Summary of the method: as §1
# Fuc(a1-2)Gal(b1-3)GlcNAc = target: Fuc(a1-2)Gal(b1-3)GlcNAc
# Summary of the method: as §1
# [6] = target: Fuc(a1-2)Gal(b1-3)GlcNAc(b1-2)Man(a1-3)[Fuc(a1-2)Gal(b1-3)GlcNAc(b1-2)Man(a1-6)]Man(b1-4)GlcNAc(b1-4)GlcNAc
# Summary of the method: as §1
# [7] = target: Fuc(a1-2)Gal(b1-3)GlcNAc(b1-2)Man(a1-3)[Fuc(a1-2)Gal(b1-3)GlcNAc(b1-2)Man(a1-6)]Man(b1-4)GlcNAc(b1-4)[Fuc(a1-6)]GlcNAc
# Summary of the method: as §1
# [8] = target: Fuc(a1-2)Gal(b1-3)GlcNAc(b1-3)Gal(b1-4)Glc
# Summary of the method: as §1
# [9] = target: Fuc(a1-2)Gal(b1-3)GlcNAc(b1-3)GalNAc
# Summary of the method: as §1
# [10] = target: Fuc(a1-2)Gal(b1-3)GlcNAc(b1-3)[Fuc(a1-2)Gal(b1-3)GlcNAc(b1-6)]GalNAc
# Summary of the method: as §1
# [11] = target: Fuc(a1-2)Gal(b1-3)GlcNAc(b1-3)[Fuc(a1-3)[Gal(b1-4)]GlcNAc(b1-6)]Gal(b1-4)Glc
# Summary of the method: as §1
# [12] = target: Fuc(a1-2)Gal(b1-3)GlcNAc(b1-3)[Gal(b1-4)GlcNAc(b1-6)]Gal(b1-4)Glc
# Summary of the method: as §1
# [13] = target: Fuc(a1-2)Gal(b1-3)GlcNAc(b1-3)[Neu5Ac(a2-6)Gal(b1-4)GlcNAc(b1-6)]Gal(b1-4)Glc
# Summary of the method: as §1
# [14] = target: Fuc(a1-2)Gal(b1-3)GlcNAc6S
# Summary of the method: as §1
# [15] = target: Fuc(a1-2)Gal(b1-3)[Fuc(a1-4)]GlcNAc
# Summary of the method: as §1
# [16] = target: Fuc(a1-2)Gal(b1-3)[Fuc(a1-4)]GlcNAc(b1-2)Man(a1-3)[Fuc(a1-2)Gal(b1-3)[Fuc(a1-4)]GlcNAc(b1-2)Man(a1-6)]Man(b1-4)GlcNAc(b1-4)GlcNAc
# Summary of the method: as §1
# [17] = target: Fuc(a1-2)Gal(b1-3)[Fuc(a1-4)]GlcNAc(b1-2)Man(a1-6)[Fuc(a1-2)Gal(b1-3)[Fuc(a1-4)]GlcNAc(b1-2)Man(a1-3)]Man(b1-4)GlcNAc(b1-4)[Fuc(a1-6)]GlcNAc
# Summary of the method: as §1
# [18] = target: Fuc(a1-2)Gal(b1-3)[Fuc(a1-4)]GlcNAc(b1-3)[Fuc(a1-3)[Gal(b1-4)]GlcNAc(b1-6)]Gal(b1-4)Glc
# Summary of the method: as §1
# [19] = target: Fuc(a1-2)Gal(b1-3)[Fuc(a1-4)]GlcNAc(b1-3)[Gal(b1-4)GlcNAc(b1-6)]Gal(b1-4)Glc
# Summary of the method: as §1
# Fuc(a1-2)Gal(b1-4)Glc = target: Fuc(a1-2)Gal(b1-4)Glc
# Summary of the method: as §1
# Fuc(a1-2)Gal(b1-4)Glc6S = target: Fuc(a1-2)Gal(b1-4)Glc6S
# Summary of the method: as §1
# Fuc(a1-2)Gal(b1-4)GlcNAc = target: Fuc(a1-2)Gal(b1-4)GlcNAc
# Summary of the method: as §1
# [20] = target: Fuc(a1-2)Gal(b1-4)GlcNAc(b1-2)Man
# Summary of the method: as §1
# [21] = target: Fuc(a1-2)Gal(b1-4)GlcNAc(b1-2)Man(a1-3)[Fuc(a1-2)Gal(b1-4)GlcNAc(b1-2)Man(a1-6)]Man(b1-4)GlcNAc(b1-4)GlcNAc
# Summary of the method: as §1
# [22] = target: Fuc(a1-2)Gal(b1-4)GlcNAc(b1-2)Man(a1-3)[Fuc(a1-2)Gal(b1-4)GlcNAc(b1-2)Man(a1-6)]Man(b1-4)GlcNAc(b1-4)[Fuc(a1-6)]GlcNAc
# Summary of the method: as §1
# [23] = target: Fuc(a1-2)Gal(b1-4)GlcNAc(b1-2)[Fuc(a1-2)Gal(b1-4)GlcNAc(b1-4)]Man(a1-3)[Fuc(a1-2)Gal(b1-4)GlcNAc(b1-2)Man(a1-6)]Man(b1-4)GlcNAc(b1-4)GlcNAc
# Summary of the method: as §1
# [24] = target: Fuc(a1-2)Gal(b1-4)GlcNAc(b1-3)Gal(b1-4)GlcNAc
# Summary of the method: as §1
# [25] = target: Fuc(a1-2)Gal(b1-4)GlcNAc(b1-3)Gal(b1-4)GlcNAc(b1-3)Gal(b1-4)GlcNAc
# Summary of the method: as §1
# [26] = target: Fuc(a1-2)Gal(b1-4)GlcNAc(b1-3)GalNAc
# Summary of the method: as §1
# [27] = target: Fuc(a1-2)Gal(b1-4)GlcNAc(b1-3)[Fuc(a1-2)Gal(b1-4)GlcNAc(b1-6)]GalNAc
# Summary of the method: as §1
# [28] = target: Fuc(a1-2)Gal(b1-4)GlcNAc(b1-6)GalNAc
# Summary of the method: as §1
# [29] = target: Fuc(a1-2)Gal(b1-4)GlcNAc6S
# Summary of the method: as §1
# [30] = target: Fuc(a1-2)Gal(b1-4)[Fuc(a1-3)]GlcNAc
# Summary of the method: as §1
# [31] = target: Fuc(a1-2)Gal(b1-4)[Fuc(a1-3)]GlcNAc(b1-2)Man(a1-3)[Fuc(a1-2)Gal(b1-4)[Fuc(a1-3)]GlcNAc(b1-2)Man(a1-6)]Man(b1-4)GlcNAc(b1-4)GlcNAc
# Summary of the method: as §1
# [32] = target: Fuc(a1-2)Gal(b1-4)[Fuc(a1-3)]GlcNAc(b1-2)Man(a1-6)[Fuc(a1-2)Gal(b1-4)[Fuc(a1-3)]GlcNAc(b1-2)Man(a1-3)]Man(b1-4)GlcNAc(b1-4)[Fuc(a1-6)]GlcNAc
# Summary of the method: as §1
# [33] = target: Fuc(a1-2)Gal(b1-4)[Fuc(a1-3)]GlcNAc(b1-2)[Fuc(a1-2)Gal(b1-4)[Fuc(a1-3)]GlcNAc(b1-4)]Man(a1-3)[Fuc(a1-2)Gal(b1-4)[Fuc(a1-3)]GlcNAc(b1-2)Man(a1-6)]Man(b1-4)GlcNAc(b1-4)GlcNAc
# Summary of the method: as §1
# [34] = target: Fuc(a1-2)Gal(b1-4)[Fuc(a1-3)]GlcNAc(b1-3)Gal(b1-4)[Fuc(a1-3)]GlcNAc
# Summary of the method: as §1
# [35] = target: Fuc(a1-2)Gal(b1-4)[Fuc(a1-3)]GlcNAc(b1-3)Gal(b1-4)[Fuc(a1-3)]GlcNAc(b1-3)Gal(b1-4)[Fuc(a1-3)]GlcNAc
# Summary of the method: as §1
# [36] = target: Fuc(a1-2)Gal(b1-4)[Fuc(a1-3)]GlcNAc(b1-3)GalNAc
# Summary of the method: as §1
# [37] = target: Fuc(a1-2)Gal(b1-4)[Fuc(a1-3)]GlcNAc(b1-3)[Neu5Ac(a2-6)Gal(b1-4)GlcNAc(b1-6)]Gal(b1-4)Glc
# Summary of the method: as §1
# [38] = target: Fuc(a1-2)Gal6S(b1-3)GlcNAc
# Summary of the method: as §1
# [39] = target: Fuc(a1-2)Gal6S(b1-3)GlcNAc6S
# Summary of the method: as §1
binder,measurement,setting,value
B1,glycan array binding signal (z-score),Fuc(a1-2)Gal,-0.253
same,glycan array binding signal (z-score),Fuc(a1-2)Gal(b1-3)GalNAc,-0.244
same,glycan array binding signal (z-score),[1],-0.212
same,glycan array binding signal (z-score),[2],-0.35
same,glycan array binding signal (z-score),[3],-0.052
same,glycan array binding signal (z-score),[4],-0.29
same,glycan array binding signal (z-score),[5],-0.252
same,glycan array binding signal (z-score),Fuc(a1-2)Gal(b1-3)GlcNAc,-0.174
same,glycan array binding signal (z-score),[6],-0.237
same,glycan array binding signal (z-score),[7],-0.253
same,glycan array binding signal (z-score),[8],-0.269
same,glycan array binding signal (z-score),[9],-0.251
same,glycan array binding signal (z-score),[10],-0.323
same,glycan array binding signal (z-score),[11],-0.229
same,glycan array binding signal (z-score),[12],-0.3
same,glycan array binding signal (z-score),[13],-0.366
same,glycan array binding signal (z-score),[14],-0.218
same,glycan array binding signal (z-score),[15],0.313
same,glycan array binding signal (z-score),[16],0.096
same,glycan array binding signal (z-score),[17],-0.258
same,glycan array binding signal (z-score),[18],-0.229
same,glycan array binding signal (z-score),[19],-0.317
same,glycan array binding signal (z-score),Fuc(a1-2)Gal(b1-4)Glc,-0.329
same,glycan array binding signal (z-score),Fuc(a1-2)Gal(b1-4)Glc6S,-0.201
same,glycan array binding signal (z-score),Fuc(a1-2)Gal(b1-4)GlcNAc,-0.29
same,glycan array binding signal (z-score),[20],-0.296
same,glycan array binding signal (z-score),[21],-0.241
same,glycan array binding signal (z-score),[22],-0.323
same,glycan array binding signal (z-score),[23],-0.131
same,glycan array binding signal (z-score),[24],-0.209
same,glycan array binding signal (z-score),[25],-0.194
same,glycan array binding signal (z-score),[26],-0.174
same,glycan array binding signal (z-score),[27],-0.282
same,glycan array binding signal (z-score),[28],-0.271
same,glycan array binding signal (z-score),[29],-0.226
same,glycan array binding signal (z-score),[30],-0.185
same,glycan array binding signal (z-score),[31],-0.12
same,glycan array binding signal (z-score),[32],-0.292
same,glycan array binding signal (z-score),[33],-0.066
same,glycan array binding signal (z-score),[34],-0.265
same,glycan array binding signal (z-score),[35],-0.144
same,glycan array binding signal (z-score),[36],0.815
same,glycan array binding signal (z-score),[37],-0.301
same,glycan array binding signal (z-score),[38],-0.314
same,glycan array binding signal (z-score),[39],-0.012

# — the supplement of paper PMC8728848
